Laboratory results from ChEMBL document CHEMBL4888484, “Replenishing the malaria drug discovery pipeline: Screening and hit evaluation of the MMV Hit Generation Library 1 (HGL1) against asexual blood stage Plasmodium falciparum ,using a nano luciferase reporter read-out” (2022).
Screen size: about 150,000 compounds; about 540 (0.36%) showed an effect of 50% or more. Some of the results follow.

Each molecule was assayed on Plasmodium falciparum (assay: Primary screen in NF54 nanoGlo assay, in single point, at 2uM, 72h; a lower Z score goes with more inhibition). Conditions: timepoint 72 hour.
Assay type: functional, Erythrocyte

SMILES | % Inhibition | Z score
COCCN(CCOC)C(=O)NC(=O)c1ccc(Cl)cc1 | 4% | -0.6
N#Cc1c(NC(=O)CN2CCN(c3ccccc3F)CC2)sc2c1CCCC2 | -15% | 1.71
CN=C(NC(=O)Nc1c(C)cccc1C)NC(=O)Nc1c(C)cccc1C | -12% | 2.31
CCN1C[C@@H](NC(=O)c2coc(COc3ccc4ncccc4c3)n2)CC1=O | -9% | 1.17
COc1ccc(CN2CCN3C(=O)N(Cc4ccc(C)cc4)C[C@H]3C2)cn1 | 14% | -2.25
COc1ccc2[nH]c(=O)c(CN3CC(n4cccn4)C3)cc2c1 | -9% | 1.43
CC[C@H](OC1CCCCC1)C(=O)Nc1ccccc1-c1noc(C)n1 | -11% | 0.94
CC[C@@H]1Oc2ccc(NC(=O)Cc3cccc(OC)c3)cc2CN(Cc2ccc3c(c2)OCO3)C1=O | -7% | 0.8
CC(C)CNC(=O)c1cccc(CN2CCC[C@](CO)(c3ccccc3)C2)c1 | -12% | 2.29
OC(CN1CCCC1c1nc2ccccc2s1)c1ccccc1 (stereo not drawn) | -15% | 2.29
CN1C(=O)[C@@H]2CCCCN2c2ccc(C(=O)O)cc21 | -5% | 0.63
C=CCC(CC=C)C(=O)Nc1cccc(Cl)c1C(N)=O | 2% | -0.19
CC(COC1CCOC1)NC(=O)C1CCC2CCCCC2C1 (stereo not drawn) | -14% | 2.17
O=C(Nc1ccc([C@@H](O)c2cccs2)cc1)C1CCOCC1 | 2% | -0.37
Cc1cc(C)n(Cc2ccc(C(=O)N3CCCCCC3)o2)n1 | 30% | -3.99
CC(C)c1ccc(NC(=O)[C@H]2C[C@H]3CCCN3[C@@]23C(=O)Nc2ccccc23)cc1 | -12% | 1.18
O=C(COc1ccccc1)NC1CCC(Oc2cnccn2)CC1 (stereo not drawn) | 0% | -0.02
O=C(c1ccccc1)c1ccc2c(c1)C(=O)N(c1ccc(Cl)cc1Cl)C2=O | -9% | 1.07
O=C(c1ccsc1)N1CCC2(CC[C@@H]2N2CCOCC2)CC1 | -20% | 2.49
O=C(O)[C@@H](c1ccccc1F)N1CCC(c2nc(-c3ccccc3)n[nH]2)CC1 | -3% | 0.34
OC[C@]12CN(Cc3ccc[nH]3)CC[C@H]1CN(Cc1ccccc1)C2 | 3% | -0.41
CCOC(=O)c1nc([C@@H](C)Cn2cc(C)cn2)no1 | -21% | 2.46
O=C(c1ccc(Cl)c(S(=O)(=O)N2CCCCCC2)c1)N1CCOCC1 | -8% | 1.2
Cc1ccsc1[C@H]1CCN(Cc2c(CO)cnc(C)c2O)C[C@@H]1O | 1% | -0.24
C[C@@H]1CCC[C@H](C)N1C(=O)CCc1nnc(Cc2cccc(C(F)(F)F)c2)o1 | -14% | 1.24
Cc1nnc([C@@H](NC(=O)Nc2ccccc2F)C(C)C)[nH]1 | 39% | -5.19
CC(C)(C)C(=O)NCC[C@H](O)c1cccc(Cl)c1 | -8% | 1

SMILES | % Inhibition | Z score
Cc1ncsc1-c1nc(CS(=O)(=O)C[C@H]2CCCO2)no1 | -6% | 1.15
CC(=O)N1CCc2c(N[C@@H]3C=Cc4ccccc4OC3)cccc21 | -6% | 1.23
O=C(c1ccc(-c2cnn(CCO)c2)cc1)N1CCCCCC1 | -7% | 0.83
O=C(NCC(F)F)c1cn2cc(-c3ccccc3Cl)n(CC3CC3)c(=O)c2n1 | 1% | -0.11
CC(C)Nc1oc(-c2cccnc2)nc1C#N | -13% | 1.69
FC(F)(F)c1cccc2c1OCCN2Cc1cn(C[C@H]2CCOC2)nn1 | -1% | 0.12
CCc1cc(N2CCc3c(cccc3C(N)=O)C2)nc(CC)n1 | -12% | 1.5
O=C(O)C1(C(=O)Nc2ccc(CN3CCOCC3)cc2)CCCCCC1 | 3% | -0.6
CN(Cc1nc(-c2ccccn2)no1)C1CCN(C(=O)c2cccs2)CC1 | -6% | 1.18
CC1CC1C(=O)NCC(NC(=O)C1CC1C)C1CC1 (stereo not drawn) | -5% | 1
CNC(=O)c1ccc2n1CCN(C(=O)OC(C)(C)C)[C@H]2C | -11% | 1.07
CC(=O)N(CCN1CCOCC1)[C@H]1CCN(C(=O)Nc2ccccc2C)C1 | -11% | 1.48
CN(C[C@H]1CCn2ccnc2C1)C(=O)c1cc2ccc(Cl)cc2[nH]1 | -38% | 4.42
Cc1cccc2nc(CCNC(=O)N3CC(Cc4ccoc4)C3)cn12 | -6% | 0.9
CCc1nc(C)c(-c2c(-c3ccccc3)ncn2[C@H]2CCCCNC2=O)[nH]1 | -3% | 0.43
COc1ccc(OC)c(-c2cc(C(=O)NCC#CCOc3ccc4c(c3)OCO4)n(C)n2)c1 | 7% | -0.87
Cc1cn2cc(C(=O)N[C@H]3CCCOC3)ccc2n1 | -8% | 1.17
CCc1noc(C)c1CS(=O)(=O)[C@H]1CCOC1 | -8% | 1.2
CCC1CCN(S(=O)(=O)NCc2nc(C(N)=O)co2)CC1 | 2% | -0.38
CC(C)(C)N(CCS(C)(=O)=O)C(=O)c1ccncc1Cl | -8% | 0.69
CCCn1ccnc1CN1C[C@H]2C[C@H](O)[C@H](O)C[C@H]2C1 | -5% | 0.67
CCn1cnc2c1CCN(C(=O)Nc1cc(CN(C)C)ccn1)C2 | -6% | 1.17
COCCN(Cc1scnc1C)C(=O)Cn1ccnc1C | -14% | 1.82
O=C(C[C@@H]1COC2(C1)CN(S(=O)(=O)c1cccc(Cl)c1)C2)NCC1CC1 | -1% | 0.12
CC(Cc1ccco1)NC(=O)N(C)C1CCS(=O)(=O)C1 (stereo not drawn) | -6% | 0.95
CC1CC(C)CN(C(=O)c2cc(NC(=O)c3ccccc3)n(C)n2)C1 (stereo not drawn) | 33% | -4.72
CNC(=O)c1ccc(CN2C[C@H](NS(=O)(=O)N(C)C)[C@@H](C(C)C)C2)o1 | -23% | 2.06
